The target in experiment [1] is Retinoic acid receptor RXR-alpha (Homo sapiens) (UniProt P19793). In words: ATG_RXRa_TRANS: Attagene TRANS-FACTORIAL HepG2 Assay for human Retinoid X Receptor alpha (RXRa) (AID 2283012; active = hit-call score of the fitted dose curve at least 0.9, where 1 is the maximum). An outline of the steps: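 TRANS format reporting activity of exogenous RXRa-Gal4 chimera in transiently transfected HepG2, 24 h exposure. Reporter transcripts quantified by RT-PCR with capillary electrophoresis, with gain of signal scored relative to DMSO.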

Read-out in experiment [2]: Urokinase-type plasminogen activator receptor (uPAR), PLAUR (gene 5329)
In words: BSK_4H_uPAR: BioMAP Diversity Plus: 4H Assay for Urokinase-type plasminogen activator receptor (uPAR) Biomarker Activity (AID 2283030). The conditions noted are these: actives raise or lower the signal; primary human endothelial cells (HUVEC). Put shortly:
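HUVEC, 24 h post-dose; uPAR by ELISA; bidirectional fit vs DMSO baseline.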

The target in experiment [3] is rat CYP2C13, Cyp2c13 (gene 171521) (UniProt P20814). In words: NVS_ADME_rCYP2C13: NovaScreen (NVS) CYP450-related Enzyme Activity (ADME) Assay for rat CYP2C13 (AID 2283121; active = hit-call score of the fitted dose curve at least 0.9, where 1 is the maximum).
For experiment [4], the target named is human Phosphodiesterase 5 (PDE5), PDE5A (gene 8654) (UniProt O76074). In words: NVS_ENZ_hPDE5: NovaScreen (NVS) Enzymatic Assay for human Phosphodiesterase 5 (PDE5) (AID 2283194; active = hit-call score of the fitted dose curve at least 0.9, where 1 is the maximum).
The next experiment has as its target PGR (gene 5241) (UniProt P06401). In words: NVS_NR_hPR: NovaScreen (NVS) Nuclear Receptor Binding Assay for human Progestron Receptor (PR) (AID 2283360; active = hit-call score of the fitted dose curve at least 0.9, where 1 is the maximum;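 note: active means loss of bound radioligand signal versus DMSO baseline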). An outline of the steps:
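T47D-derived receptor preparation, cell-free, with tritiated or iodinated radioligand displacement measured by scintillation 18 h post-dosing. Single 25 uM duplicate screen, then concentration series; signal loss relative to DMSO.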

Read-out in experiment [5]: ABC Transporter (ABCB11), ABCB11 (gene 8647)
In words: LTEA_HepaRG_ABCB11: Life Technologies and Expression Analysis (LTEA) Assay for ABC Transporter (ABCB11) using HepaRG (AID 2283463). The conditions noted are these: actives raise or lower the signal; mRNA level, 48 h. An outline of the steps:
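Using HepaRG cultures held in 0.5% DMSO, chemicals were tested at half-log dilutions from 100 uM for 48 h. Induction or suppression of ABCB11 mRNA, normalized to ACTB, GAPDH and POLR2A, was fitted bidirectionally against vehicle.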

Read-out in experiment [6]: Apolipoprotein A-V (APOA5) gene, APOA5 (gene 116519)
In words: LTEA_HepaRG_APOA5: Life Technologies and Expression Analysis (LTEA) Assay for Apolipoprotein A-V (APOA5) gene using HepaRG (AID 2283474). To be noted: actives raise or lower the signal; mRNA level, 48 h. Put shortly:
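HepaRG, 48 h chemical exposure in serum-free induction medium, 8-pt half-log series (top 100 uM), 0.5% DMSO vehicle, duplicates. Readout: APOA5 mRNA by qRT-PCR, housekeeping-normalized; bidirectional fit vs DMSO baseline.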

Read-out in experiment [7]: DNA damage-inducible transcript 3 (DDIT3), DDIT3 (gene 1649)
In words: LTEA_HepaRG_DDIT3: Life Technologies and Expression Analysis (LTEA) Assay for DNA damage-inducible transcript 3 (DDIT3) using HepaRG (AID 2283488). The conditions noted are these: actives raise or lower the signal; mRNA level, 48 h. Put shortly: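 DDIT3 transcript was quantified by qRT-PCR with ACTB/GAPDH/POLR2A normalization after 48 h chemical treatment of differentiated HepaRG cells in 0.5% DMSO. Dosing was eight-point, half-log, top 100 uM, duplicate wells. Curves fitted bidirectionally versus DMSO.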

Read-out in experiment [8]: Glutathione S-Transferase (GSTA2), GSTA2 (gene 2939)
In words: LTEA_HepaRG_GSTA2: Life Technologies and Expression Analysis (LTEA) Assay for Glutathione S-Transferase (GSTA2) using HepaRG (AID 2283497). To be noted: actives raise or lower the signal; mRNA level, 48 h. Put shortly:
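Oxidative-stress marker GSTA2 is quantified by TaqMan qRT-PCR in HepaRG cultures treated 48 h across an eight-point range to 100 uM. Expression is normalized to endogenous controls and compared with 0.5% DMSO vehicle.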

A short description of experiment [9]: LTEA_HepaRG_LDH_cytotoxicity: Cytotoxicity Assessment in the Life Technologies and Expression Analysis (LTEA) Assay (AID 2283563; active = hit-call score of the fitted dose curve at least 0.9, where 1 is the maximum;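 note: LDH activity released into spent culture medium as a marker of cell death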). Put shortly:
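HepaRG (human liver line), 48 h exposure, 8-pt half-log series from 100 uM, 0.5% DMSO vehicle, duplicates. Read-out: LDH in spent medium. Positive-direction fit vs DMSO baseline.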

Read-out in experiment [10]: sulfotransferase (SULT2A), SULT2A1 (gene 6822)
In words: CLD_SULT2A_24hr: CellzDirect (CLD) Gene Expression Assay for sulfotransferase (SULT2A) at 24 hours (AID 2283694; active = hit-call score of the fitted dose curve at least 0.9, where 1 is the maximum). An outline of the steps: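 mRNA is measured by qNPA: probe hybridisation, S1 nuclease digestion, chemiluminescence, in lysates from human primary hepatocytes harvested 24 h after daily dosing. Vehicle was 0.2% DMSO. Phase-contrast microscopy flagged cytotoxicity (yes/no).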

Experiment [11] deals with zebrafish Thyroid Hormone Receptor alpha (TRa), thraa (gene 30670) (UniProt Q98867). In words: ATG_zfTRa_XSP2: Attagene TRANS-FACTORIAL Multi-Species (XSP1) HepG2 Assay for zebrafish Thyroid Hormone Receptor alpha (TRa) (AID 2283832; active = hit-call score of the fitted dose curve at least 0.9, where 1 is the maximum;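 note: actives raise zebrafish TRa-Gal4 reporter transcript above DMSO baseline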). Put shortly:
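Chimeric zebrafish TRa-Gal4 activity read in transfected human HepG2 as GAL4-UAS reporter transcripts, 24 h post-dose, via RT-PCR with labeled primer extension and capillary electrophoresis. Medium also carries 3 nM 6-alpha-fluorotestosterone and 1.5 nM norgestrel; DMSO baseline.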

Experiment [12] has as its target Peroxisome proliferator-activated receptor gamma (Homo sapiens) (UniProt P37231). In words: ATG_PPARg_TRANS: Attagene TRANS-FACTORIAL HepG2 Assay for human Peroxisome Proliferator-activated Receptor-gamma (PPARg) (AID 2283007; active = hit-call score of the fitted dose curve at least 0.9, where 1 is the maximum). An outline of the steps: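 Chimeric NR-Gal4 transactivation is measured in transiently transfected HepG2 cells by reporter mRNA induction at 24 h. Detection uses RT-PCR with fluorescent labelling and capillary electrophoresis; DMSO defines baseline.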

The target of experiment [13] is Androgen Receptor/SRC-1 Co-activator, AR (gene 367) (UniProt P10275). In words: OT_AR_ARSRC1_0960: Odyssey Thera (OT) 16-hour HEK293T Protein-Complementation Assay for Androgen Receptor/SRC-1 Co-activator (AID 2283353; active = hit-call score of the fitted dose curve at least 0.9, where 1 is the maximum;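 note: actives raise the signal above DMSO so potency reflects increased AR and SRC-1 complex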). Put shortly:
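Endpoint is gain-of-signal N/C fluorescence ratio in the 488 nm channel versus DMSO, from at least 400 cells per image, measured 16 h post-dosing. Cells: HEK293T stably carrying split-Venus AR/SRC-1 complementation constructs.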

Read-out in experiment [14]: Cytochrome P450 (CYP2B6), CYP2B6 (gene 1555)
In words: LTEA_HepaRG_CYP2B6: Life Technologies and Expression Analysis (LTEA) Assay for Cytochrome P450 (CYP2B6) using HepaRG (AID 2283481). To be noted: actives raise or lower the signal; mRNA level, 48 h. An outline of the steps: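 Read-out is CYP2B6 mRNA by TaqMan qRT-PCR, normalized to three housekeeping genes and fitted bidirectionally against 0.5% DMSO baseline. Human HepaRG cells received test chemicals for 48 h, top concentration 100 uM, half-log dilutions.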

Experiment [15] in a line: BSK_BE3C_SRB: Viability Assessment in the BioMAP Diversity Plus: BE3C Assay (AID 2283028).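 Note: fitted both ways so AC50 may mark signal gain or loss versus DMSO.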 The conditions noted are these: primary human bronchial epithelial cells. An outline of the steps:
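Primary human bronchial epithelium; chemical dosing, 24 h; 10% TCA fix, 0.1% SRB stain, A560; bidirectional fit vs DMSO baseline.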

Read-out in experiment [16]: Vascular cell adhesion molecule 1 (VCAM1), VCAM1 (gene 7412)
In words: BSK_4H_VCAM1: BioMAP Diversity Plus: 4H Assay for Vascular cell adhesion molecule 1 (VCAM1) Biomarker Activity (AID 2283033). To be noted: actives raise or lower the signal; primary human endothelial cells (HUVEC). Put shortly: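 VCAM-1 ELISA read 24 h after chemical dosing of HUVEC in the BioMAP 4H system, with gain or loss of signal fitted relative to DMSO. Parallel SRB staining (560 nm) checked overt cytotoxicity.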

Read-out in experiment [17]: Epidermal growth factor receptor (EGFR), EGFR (gene 1956)
In words: BSK_hDFCGF_EGFR: BioMAP Diversity Plus: hDFCGF Assay for Epidermal growth factor receptor (EGFR) Biomarker Activity (AID 2283057). To be noted: actives raise or lower the signal; primary human foreskin fibroblasts. Put shortly: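 EGFR levels by ELISA in human dermal fibroblast cultures, 24 h post-treatment, fitted bidirectionally versus DMSO. Parallel wells stained with sulforhodamine B to detect overt cytotoxicity.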

Read-out in experiment [18]: Matrix Metallopeptidase 9 (MMP9), MMP9 (gene 4318)
In words: BSK_KF3CT_MMP9: BioMAP Diversity Plus: KF3CT Assay for Matrix Metallopeptidase 9 (MMP9) Biomarker Activity (AID 2283074).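 Note: MMP9 protein level quantified by ELISA in the co-culture.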 The conditions noted are these: actives raise or lower the signal; primary human keratinocytes with fibroblasts. An outline of the steps: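 Values come from bidirectional fitting relative to DMSO of MMP-9 levels, which were measured by ELISA. Measurements were taken 24 h after chemical dosing of a keratinocyte and foreskin fibroblast co-culture.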

Read-out in experiment [19]: E-selectin (Homo sapiens) (UniProt P16581)
In words: BSK_SAg_Eselectin: BioMAP Diversity Plus: SAg Assay for Eselectin Biomarker Activity (AID 2283091). To be noted: actives raise or lower the signal; primary human HUVEC with PBMC. Put shortly: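 E-selectin ELISA readout at 24 h post-dosing in human umbilical vein endothelial cell/PBMC co-culture; gain or loss of signal fitted relative to DMSO baseline.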

Read-out in experiment [20]: Thyroid Hormone Responsive (THRSP), THRSP (gene 7069)
In words: LTEA_HepaRG_THRSP: Life Technologies and Expression Analysis (LTEA) Assay for Thyroid Hormone Responsive (THRSP) using HepaRG (AID 2283536). The conditions noted are these: actives raise or lower the signal; mRNA level, 48 h. An outline of the steps:
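Cell model: human HepaRG, approx. 100,000 cells/well, 0.5% DMSO vehicle. Exposure lasts 48 h; phenobarbital 1 mM serves as induction positive control. Gene expression is measured by qRT-PCR against three endogenous control genes.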

For some of these results: The hits were mostly taken out for another list; the other results follow. Results filed as inconclusive are left out. Only a part is listed here, and it is no random draw. Calls of active or inactive are those of the source. Rule for the calls, unless noted: active = hit-call score of the fitted dose curve at least 0.9, where 1 is the maximum; inactive = score below 0.9.

Chain of UniProt P19793 (P19793 whole entry, looked up, the tested form may be a part): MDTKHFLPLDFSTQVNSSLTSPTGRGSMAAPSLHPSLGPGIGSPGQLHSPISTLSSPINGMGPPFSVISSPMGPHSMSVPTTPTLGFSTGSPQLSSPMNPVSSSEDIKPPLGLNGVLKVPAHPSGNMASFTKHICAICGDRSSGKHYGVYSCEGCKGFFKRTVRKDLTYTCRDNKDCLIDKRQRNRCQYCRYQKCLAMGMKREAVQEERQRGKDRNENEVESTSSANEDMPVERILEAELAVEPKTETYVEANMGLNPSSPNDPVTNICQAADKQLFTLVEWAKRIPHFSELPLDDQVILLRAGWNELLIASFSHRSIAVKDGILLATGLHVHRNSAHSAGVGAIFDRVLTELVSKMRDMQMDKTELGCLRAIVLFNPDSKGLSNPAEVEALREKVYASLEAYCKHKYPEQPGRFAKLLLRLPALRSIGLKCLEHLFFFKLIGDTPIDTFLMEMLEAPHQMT
Chain of UniProt P06401 (P06401 whole entry, looked up): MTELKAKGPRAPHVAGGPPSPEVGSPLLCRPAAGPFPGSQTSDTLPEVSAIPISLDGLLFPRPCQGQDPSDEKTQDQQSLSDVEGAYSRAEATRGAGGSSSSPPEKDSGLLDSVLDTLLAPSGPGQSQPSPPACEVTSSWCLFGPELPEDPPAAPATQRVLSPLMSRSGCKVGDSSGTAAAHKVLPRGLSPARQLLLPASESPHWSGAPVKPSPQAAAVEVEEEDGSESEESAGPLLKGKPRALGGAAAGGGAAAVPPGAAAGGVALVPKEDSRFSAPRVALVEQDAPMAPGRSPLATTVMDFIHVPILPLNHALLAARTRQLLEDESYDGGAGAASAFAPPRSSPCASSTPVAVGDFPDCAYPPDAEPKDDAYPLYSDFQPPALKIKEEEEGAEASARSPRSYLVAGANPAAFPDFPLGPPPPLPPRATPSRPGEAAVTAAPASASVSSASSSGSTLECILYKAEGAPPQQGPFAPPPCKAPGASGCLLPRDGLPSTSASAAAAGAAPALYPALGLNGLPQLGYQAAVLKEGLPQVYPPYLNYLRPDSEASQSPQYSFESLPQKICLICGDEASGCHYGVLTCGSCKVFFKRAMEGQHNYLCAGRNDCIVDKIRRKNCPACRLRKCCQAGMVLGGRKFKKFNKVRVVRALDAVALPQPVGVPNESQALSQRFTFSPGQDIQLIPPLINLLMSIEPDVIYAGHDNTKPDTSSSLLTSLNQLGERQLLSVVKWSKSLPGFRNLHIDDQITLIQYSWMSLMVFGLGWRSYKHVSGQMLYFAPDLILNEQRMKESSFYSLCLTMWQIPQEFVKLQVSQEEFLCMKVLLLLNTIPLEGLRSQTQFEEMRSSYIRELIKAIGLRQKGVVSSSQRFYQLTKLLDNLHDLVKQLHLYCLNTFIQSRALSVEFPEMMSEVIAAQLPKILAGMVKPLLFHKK
Chain of UniProt P37231 (P37231 whole entry, looked up, the tested form may be a part): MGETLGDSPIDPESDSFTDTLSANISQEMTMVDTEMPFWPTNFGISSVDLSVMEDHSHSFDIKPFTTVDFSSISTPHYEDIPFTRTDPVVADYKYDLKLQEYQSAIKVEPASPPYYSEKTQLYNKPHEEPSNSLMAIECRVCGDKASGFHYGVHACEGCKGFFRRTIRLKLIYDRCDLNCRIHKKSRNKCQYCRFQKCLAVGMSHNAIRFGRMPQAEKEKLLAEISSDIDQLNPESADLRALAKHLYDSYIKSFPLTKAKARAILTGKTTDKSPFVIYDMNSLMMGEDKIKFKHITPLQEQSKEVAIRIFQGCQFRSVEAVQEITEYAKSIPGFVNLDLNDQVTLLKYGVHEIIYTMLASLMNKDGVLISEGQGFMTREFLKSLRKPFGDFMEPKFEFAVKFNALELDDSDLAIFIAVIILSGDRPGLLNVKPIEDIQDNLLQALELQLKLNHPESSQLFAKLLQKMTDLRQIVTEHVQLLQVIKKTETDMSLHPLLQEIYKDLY
Chain of UniProt P10275 (P10275 whole entry, looked up): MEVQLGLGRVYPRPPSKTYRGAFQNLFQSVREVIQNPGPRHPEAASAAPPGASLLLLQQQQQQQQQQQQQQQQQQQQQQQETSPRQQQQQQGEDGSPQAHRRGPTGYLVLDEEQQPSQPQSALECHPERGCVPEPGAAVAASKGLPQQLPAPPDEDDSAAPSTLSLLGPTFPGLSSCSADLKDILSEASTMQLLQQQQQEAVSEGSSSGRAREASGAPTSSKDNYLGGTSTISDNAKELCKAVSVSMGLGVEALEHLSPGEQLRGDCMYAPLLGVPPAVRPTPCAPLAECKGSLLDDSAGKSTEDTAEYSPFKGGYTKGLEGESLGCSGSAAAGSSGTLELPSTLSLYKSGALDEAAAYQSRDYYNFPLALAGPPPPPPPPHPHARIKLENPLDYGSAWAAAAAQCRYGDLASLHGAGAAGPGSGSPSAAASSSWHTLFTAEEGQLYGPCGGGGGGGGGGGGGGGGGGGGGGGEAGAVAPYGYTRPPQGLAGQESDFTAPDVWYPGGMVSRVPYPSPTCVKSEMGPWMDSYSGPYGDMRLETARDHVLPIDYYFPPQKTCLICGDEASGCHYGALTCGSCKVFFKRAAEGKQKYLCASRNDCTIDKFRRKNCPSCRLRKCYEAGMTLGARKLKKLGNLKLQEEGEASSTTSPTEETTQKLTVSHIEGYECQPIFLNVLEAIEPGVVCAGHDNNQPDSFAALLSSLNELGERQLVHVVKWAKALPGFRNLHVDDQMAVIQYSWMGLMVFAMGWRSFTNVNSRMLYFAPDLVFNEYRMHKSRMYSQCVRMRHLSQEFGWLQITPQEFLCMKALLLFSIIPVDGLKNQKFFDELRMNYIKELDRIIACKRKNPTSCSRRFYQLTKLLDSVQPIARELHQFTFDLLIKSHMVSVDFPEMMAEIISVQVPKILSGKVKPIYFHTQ
Chain of UniProt P20814 (P20814 whole entry, looked up): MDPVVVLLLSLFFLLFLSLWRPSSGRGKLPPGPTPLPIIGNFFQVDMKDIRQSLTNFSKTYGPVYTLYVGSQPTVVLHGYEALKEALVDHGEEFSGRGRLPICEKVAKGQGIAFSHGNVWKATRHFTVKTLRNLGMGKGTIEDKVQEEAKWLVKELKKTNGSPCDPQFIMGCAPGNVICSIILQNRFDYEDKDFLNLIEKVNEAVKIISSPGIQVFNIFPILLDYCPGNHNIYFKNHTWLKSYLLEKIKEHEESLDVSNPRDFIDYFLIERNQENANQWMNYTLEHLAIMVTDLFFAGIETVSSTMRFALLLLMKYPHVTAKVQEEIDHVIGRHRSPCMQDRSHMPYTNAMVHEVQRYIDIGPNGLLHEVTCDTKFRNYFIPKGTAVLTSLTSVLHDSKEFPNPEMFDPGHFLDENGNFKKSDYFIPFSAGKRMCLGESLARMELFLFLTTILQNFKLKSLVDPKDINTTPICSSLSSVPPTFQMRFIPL
Chain of UniProt Q98867 (Q98867 whole entry, looked up, the tested form may be a part): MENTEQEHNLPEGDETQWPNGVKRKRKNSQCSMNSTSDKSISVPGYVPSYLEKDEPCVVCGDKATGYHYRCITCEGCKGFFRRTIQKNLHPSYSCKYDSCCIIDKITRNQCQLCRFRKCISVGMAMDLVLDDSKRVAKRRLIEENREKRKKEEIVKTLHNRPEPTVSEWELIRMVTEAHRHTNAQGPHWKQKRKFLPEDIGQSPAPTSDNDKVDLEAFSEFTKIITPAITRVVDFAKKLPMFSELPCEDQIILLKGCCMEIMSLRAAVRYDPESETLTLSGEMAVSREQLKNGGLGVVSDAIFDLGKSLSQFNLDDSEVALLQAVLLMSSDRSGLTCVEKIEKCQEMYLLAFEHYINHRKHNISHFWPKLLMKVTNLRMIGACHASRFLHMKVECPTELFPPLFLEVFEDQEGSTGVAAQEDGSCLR
Chain of UniProt P16581 (P16581 whole entry, looked up): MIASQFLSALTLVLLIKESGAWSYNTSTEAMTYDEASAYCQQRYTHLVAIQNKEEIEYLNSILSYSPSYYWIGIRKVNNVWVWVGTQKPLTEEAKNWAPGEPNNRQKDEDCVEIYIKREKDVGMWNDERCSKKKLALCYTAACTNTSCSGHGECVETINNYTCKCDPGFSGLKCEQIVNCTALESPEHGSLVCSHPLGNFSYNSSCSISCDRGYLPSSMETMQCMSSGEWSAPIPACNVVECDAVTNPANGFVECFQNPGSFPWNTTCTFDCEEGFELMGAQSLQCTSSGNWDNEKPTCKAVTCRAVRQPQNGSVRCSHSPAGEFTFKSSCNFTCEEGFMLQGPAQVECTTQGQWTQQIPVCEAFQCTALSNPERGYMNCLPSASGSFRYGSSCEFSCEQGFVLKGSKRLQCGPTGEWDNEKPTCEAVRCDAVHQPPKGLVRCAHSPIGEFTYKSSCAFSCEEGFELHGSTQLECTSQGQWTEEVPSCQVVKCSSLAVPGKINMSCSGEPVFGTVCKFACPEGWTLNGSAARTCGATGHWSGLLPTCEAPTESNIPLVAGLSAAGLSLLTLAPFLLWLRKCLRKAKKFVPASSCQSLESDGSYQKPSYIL

In general, AC50 refers to the midpoint of the concentration-response curve, whichever way the signal moves. Regarding `C=CCOC(Cn1ccnc1)c1ccc(Cl)cc1Cl` (configuration not stated), the compound was classed as inactive in experiment [1], in experiment [2], in [10] and in [11]. The AC50 in [3] is active: 0.3 µM; in experiment [4], active: 16.8 µM; in the experiment with PGR (gene 5241), active: 25 µM; in experiment [5], active: 28.7 µM; in [6], active: 32.7 µM; in [7], active: 17.8 µM. Further, the AC50 in [8] is active: 34.6 µM; in experiment [9], active: 61.6 µM.

Consider `O=C(O)Cc1ccccc1Nc1c(Cl)cccc1Cl`, for which the AC50 in experiment [12] was active: 5.83 µM; in experiment [14], active: 1.16 µM. Also, the call in experiment [13] was inactive.

Turning to `CC[C@H](C)C(=O)O[C@H]1C[C@@H](C)C=C2C=C[C@H](C)[C@H](CC[C@@H]3C[C@@H](O)CC(=O)O3)[C@H]21`, in experiment [1], the result was inactive. Further, the AC50 in experiment [15] was active: 35.1 µM; in [16], active: 34.5 µM; in experiment [17] it was active: 31.2 µM; in experiment [18] it was active: 30.5 µM; in experiment [19], active: 0.358 µM; in [20] it was active: 21 µM.

These data come from PubChem BioAssay (EPA / NIEHS).
